# Results: the antibiotic and cytotoxicity screens of Wong et al. (2023)
# The other results are listed elsewhere or left out.
# Tested on: HSkMC (human skeletal muscle cells)
# Assay: cytotoxicity call (relative viability < 0.9)
# Settings: 10 µM
row,SMILES,cytotoxicity call
1,Clc1ccc2c(c1)[C@H]1C=CC[C@@H]1[C@@H](c1ccccc1)N2,inactive
2,CC(N)(Cc1ccc(O)c(O)c1)C(=O)O (configuration not stated),inactive
3,C[C@@H]1CN([C@@H](C)CO)C(=O)c2cc(NS(=O)(=O)c3cccs3)ccc2O[C@@H](C)CCCCO[C@@H]1CN(C)CC1CCCCC1,inactive
4,CC(=O)O[C@@]1(C)C[C@@H](O)[C@@H]2C=CO[C@@H](O[C@@H]3O[C@H](CO)[C@@H](O)[C@H](O)[C@H]3O)[C@@H]21,inactive
5,O=C(Cc1ccccc1)Nc1ccccc1Sc1ccccc1,inactive
6,COc1ccc(S(=O)(=O)Nc2ccc3c(c2)C(=O)N([C@@H](C)CO)C[C@@H](C)[C@H](CN(C)C(=O)Nc2ccc(C(F)(F)F)cc2)OCCCC[C@H](C)O3)cc1,inactive
7,C[C@@H]1CN([C@@H](C)CO)S(=O)(=O)c2ccc(C#Cc3ccccc3F)cc2O[C@@H]1CN(C)CC1CC1,inactive
